{
  "source": "patent US20090186915A1",
  "about": "“Compositions and methods for treatment of glioblastoma, gliosarcoma, NSCLC, and head and neck cancer” (Unibioscreen S. A., priority 2006, published 2009)",
  "tested_on": "PC-3 Human Prostate Cancer Cells",
  "assay": "Affymetrix whole genome microarray, gene targets",
  "conditions": "1 μM one time a day during five consecutive days",
  "experimental": "We performed a first experiment of evaluation of gene targets by means of Affymetrix whole genome microarray using human PC-3 cancer cells grown in vitro and treated with the compound of the invention (N-{2-[2-(dimethylamino)ethyl]-1,3-dioxo-2,3-dihydro-1H-benzo[de]isoquinolin-5-yl}urea) either one time at 1 μM or 10 μM, or 5 times a week (one time a day during five consecutive days) at 1 μM (Full genome analyses were performed at the VIB MicroArray Facility (UZ Gasthuisberg, Catholic University of Leuven, Belgium) using Affymetrix Human Genome U133 set Plus 2.0 (High Wycombe, United Kingdom). […] The second set of genes targeted by this compound belongs to a category of genes labeled “amino acid metabolism” (Table 5).\nPC-3 prostate cancer cells were either left untreated (control) or treated with UNBS5162 at 1) 1, 2) 10, or 3) 1 μM once a day for 5 consecutive days (with a washout process and renewal of culture medium before each new addition of compound, i.e., “5×1” μM). […]\nIn addition to R, an open-source software environment for statistical computing, a set of functions called BioConductor was used for the analysis and comprehension of the genomic data. […] The background correction, expression quantification and normalization were performed using Robust Multichip Analysis. […]",
  "data": [
    {"smiles": "CN(C)CCN1C(=O)c2cccc3cc(NC(N)=O)cc(c23)C1=O", "note": "[UNBS5162, N-{2-[2-(dimethylamino)ethyl]-1,3-dioxo-2,3-dihydro-1H-benzo[de]isoquinolin-5-yl}urea]", "values": [
      {"measurement": "mRNA levels of E2F-1 (Affymetrix)", "value": "decreased by two times"}
    ]}
  ]
}
